PubChem BioAssay AID504333 (National Center for Advancing Translational Sciences (NCATS), 2011)
Out of some 360,000 compounds screened, about 16,000 (4.4%) were called active. The shares of active, inactive and inconclusive entries below differ from those in the screen. Calls come from the whole dose curve; as a rule, active = well fitted inhibition curve with a large enough effect; inconclusive = small, poorly fitted or top-dose-only effect; inactive = no such curve, though single readings can be large or run the other way. Potencies of inconclusive entries are doubtful fits and often do not repeat.

What follows are compounds tested against Bromodomain adjacent to zinc finger domain protein 2B (Homo sapiens) (UniProt Q9UIF8) (assay: qHTS Assay for Inhibitors of BAZ2B). Details: AlphaScreen BAZ2B-H3K14Ac peptide displacement; activity change, negative = inhibition: at 114 µM (top of the series) unless noted.
UniProt Q9UIF8, sequence (Q9UIF8 whole entry, looked up, the tested form may be a part): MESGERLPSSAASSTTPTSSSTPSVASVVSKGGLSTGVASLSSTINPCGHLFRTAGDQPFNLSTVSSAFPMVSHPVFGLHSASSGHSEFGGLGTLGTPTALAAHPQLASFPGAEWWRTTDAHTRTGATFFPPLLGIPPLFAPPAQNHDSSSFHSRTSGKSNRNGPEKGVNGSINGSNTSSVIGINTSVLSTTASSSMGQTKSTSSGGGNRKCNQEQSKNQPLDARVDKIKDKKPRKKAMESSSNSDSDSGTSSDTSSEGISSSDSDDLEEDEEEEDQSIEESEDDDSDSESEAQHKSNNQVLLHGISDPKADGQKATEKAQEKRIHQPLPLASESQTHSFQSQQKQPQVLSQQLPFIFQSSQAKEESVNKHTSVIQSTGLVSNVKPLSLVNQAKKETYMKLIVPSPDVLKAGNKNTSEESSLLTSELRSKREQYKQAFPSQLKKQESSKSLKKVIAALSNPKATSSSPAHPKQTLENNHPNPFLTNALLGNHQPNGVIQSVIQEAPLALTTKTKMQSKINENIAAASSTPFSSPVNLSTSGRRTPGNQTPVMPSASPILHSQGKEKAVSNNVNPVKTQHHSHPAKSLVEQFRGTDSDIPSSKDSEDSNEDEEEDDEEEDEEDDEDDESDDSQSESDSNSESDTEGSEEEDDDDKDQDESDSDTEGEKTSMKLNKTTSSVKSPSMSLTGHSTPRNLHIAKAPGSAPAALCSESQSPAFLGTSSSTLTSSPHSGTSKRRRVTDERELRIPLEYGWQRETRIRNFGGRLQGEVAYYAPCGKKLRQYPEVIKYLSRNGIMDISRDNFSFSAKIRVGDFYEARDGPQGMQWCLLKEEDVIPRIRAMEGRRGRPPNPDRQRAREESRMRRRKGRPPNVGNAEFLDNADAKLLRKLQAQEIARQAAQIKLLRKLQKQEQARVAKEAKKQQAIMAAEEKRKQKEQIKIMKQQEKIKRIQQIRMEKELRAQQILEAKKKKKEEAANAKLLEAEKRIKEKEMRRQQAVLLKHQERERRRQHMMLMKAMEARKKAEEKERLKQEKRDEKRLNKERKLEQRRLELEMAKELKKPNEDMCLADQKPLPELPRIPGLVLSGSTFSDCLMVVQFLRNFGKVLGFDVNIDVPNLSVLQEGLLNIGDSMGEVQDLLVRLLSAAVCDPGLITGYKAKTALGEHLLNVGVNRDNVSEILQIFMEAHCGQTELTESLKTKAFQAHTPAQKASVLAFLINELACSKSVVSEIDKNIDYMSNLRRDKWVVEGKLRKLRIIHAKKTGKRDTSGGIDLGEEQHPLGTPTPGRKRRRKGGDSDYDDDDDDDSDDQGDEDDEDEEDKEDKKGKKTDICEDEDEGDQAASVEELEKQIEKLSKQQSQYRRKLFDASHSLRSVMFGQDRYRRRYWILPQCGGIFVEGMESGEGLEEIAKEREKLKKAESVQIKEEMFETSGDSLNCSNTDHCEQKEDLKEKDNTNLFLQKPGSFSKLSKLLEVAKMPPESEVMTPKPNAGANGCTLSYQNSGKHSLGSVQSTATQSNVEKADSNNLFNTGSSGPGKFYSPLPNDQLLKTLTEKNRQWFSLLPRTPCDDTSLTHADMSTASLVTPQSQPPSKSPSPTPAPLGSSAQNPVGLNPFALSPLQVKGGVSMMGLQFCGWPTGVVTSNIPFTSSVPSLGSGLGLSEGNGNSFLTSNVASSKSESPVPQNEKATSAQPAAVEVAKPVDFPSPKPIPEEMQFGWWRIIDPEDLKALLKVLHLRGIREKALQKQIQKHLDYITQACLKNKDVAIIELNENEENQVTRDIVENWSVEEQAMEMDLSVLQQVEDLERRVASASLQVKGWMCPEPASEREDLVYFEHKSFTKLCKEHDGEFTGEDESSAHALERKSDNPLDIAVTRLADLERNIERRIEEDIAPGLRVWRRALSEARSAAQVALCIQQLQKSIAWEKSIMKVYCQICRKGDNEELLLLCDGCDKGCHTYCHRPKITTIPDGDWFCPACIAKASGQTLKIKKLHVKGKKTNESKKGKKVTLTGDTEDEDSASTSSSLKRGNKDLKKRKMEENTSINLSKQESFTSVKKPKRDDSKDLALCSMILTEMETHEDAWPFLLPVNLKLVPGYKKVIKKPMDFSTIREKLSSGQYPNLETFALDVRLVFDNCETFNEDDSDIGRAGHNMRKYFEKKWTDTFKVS
Method in brief: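 Multi-concentration screen (max 110 uM) measuring displacement of acetylated histone H3 peptide from BAZ2B by AlphaScreen, using 50 nM protein, 50 nM peptide and 10 ug/mL streptavidin donor plus Ni-chelate acceptor beads.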
% is set by controls: 0 for no effect and ±100 for the full control effect; potency is the fitted concentration of half-maximal effect; tags give direction and shape of the fitted curve.
Note: nearly all actives have a fitted effect of over 60% in size.

| Compound | activity change, negative = inhibition | Potency |
| --- | --- | --- |
| Cc1cccc(-c2nc3c(s2)CCc2onc(-c4ccc(Br)cc4)c2-3)c1 | inactive: -23% | – |
| O=C(CC1CCCCC1)NCc1ccccn1 | inactive: -5% | – |
| CN1CCN(c2ccc(Cl)cc2NC(=O)C2COc3ccccc3O2)CC1 (configuration not stated) | – | inconclusive: 44.7 µM [inhibitor, partial curve] |
| Cc1cc(=O)oc2cc(OC(C)C(=O)Nc3ccc(N4CCOCC4)cc3)ccc12 (configuration not stated) | – | inconclusive: 89.1 µM [inhibitor, single point] |
| O=C1NC2(CCCCC2)NN1c1ccccc1 | – | inconclusive: 89.1 µM [inhibitor, single point] |
| CN(c1ccccc1)S(=O)(=O)c1cccc(NC(=O)C2CC(=O)N(Cc3ccccc3)C2)c1 (configuration not stated) | – | inconclusive: 79.4 µM [inhibitor, single point] |
| CC(C)CCNC(=O)NC(=O)COc1ncnc2sccc12 | inactive: -0.451% | – |
| O=C(C(=O)N1CCN(c2ccccc2)CC1)c1c[nH]c2ccccc12 | – | inconclusive: 70.8 µM [inhibitor, single point] |
| O=C(NCc1cccc(Br)c1)c1cnn(-c2ccc(F)cc2)c1-n1cccc1 | inactive: -4.46% | – |
| COc1ccc(CCN2C(=O)c3[nH]nc(-c4ccccc4O)c3C2c2ccc(OC)cc2)cc1 (configuration not stated) | – | inconclusive: 89.1 µM [inhibitor, single point] |
| S=C(Nc1ccc(Cl)cc1)N1CCN(Cc2ccccc2)CC1 | – | inconclusive: 70.8 µM [inhibitor, single point] |
| CCOc1ccc(CCNC(=O)c2ccc3c(c2)c(C)c(C)n3Cc2ccccc2)cc1OCC | – | inconclusive: 22.4 µM [inhibitor, full curve] |
| C/C(Cl)=C/Cc1c(C)[nH]c2c(ccc3ccccc32)c1=O | – | inconclusive: 89.1 µM [inhibitor, single point] |
| COCCNCCCCOc1ccc(C)cc1[N+](=O)[O-] | – | active: 56.2 µM |
| Cc1c(C)n(C(=O)CN2CCN(c3ccccc3)CC2)c2ccccc12 | – | inconclusive: 25.1 µM [inhibitor, full curve] |
| CCCCn1c(-c2ccc(Br)cc2F)nc2c1c(=O)[nH]c(=O)n2CC(C)C | – | inconclusive: 89.1 µM [inhibitor, single point] |
| CCOc1ccc2ccccc2c1/C=N/NC(=O)c1ccncc1 | inactive: -10.6% | – |
| COc1ccccc1/C=N/NC(=O)C1=NNC(c2ccccc2)(c2ccccc2)C1 | – | inconclusive: 50.1 µM [inhibitor, partial curve] |
| CCOc1ccc(NC(=O)CN(C)Cc2cc(=O)n3c(-c4ccccc4)csc3n2)cc1OCC | – | inconclusive: 70.8 µM [inhibitor, partial curve] |
| Cc1c(C)n(CCCN(C)C)c2ncnc(NC3CCCCC3)c12 | – | inconclusive: 89.1 µM [inhibitor, single point] |
| Cc1cccnc1NC(=O)CNC(=O)c1cccs1 | inactive: 10.9% | – |
| CN(c1ccccc1)c1nc(N)c([N+](=O)[O-])c(NCc2ccco2)n1 | – | inconclusive: 44.7 µM [inhibitor, partial curve] |
| O=C(Nc1cccc(S(=O)(=O)N2CCCCC2)c1)c1ccc2ncsc2c1 | – | active: 56.2 µM |
| Cc1c(C(=O)O)sc(=S)n1CCOc1ccccc1 | – | inconclusive: 89.1 µM [inhibitor, single point] |

| Compound | activity change, negative = inhibition | Potency |
| --- | --- | --- |
| CNCc1ccccc1Sc1cc(O)ccc1O | – | active: 35.5 µM |
| CCCc1c(C)[nH]c2ccc(NC(C)=O)cc2c1=O | – | inconclusive: 89.1 µM [inhibitor, single point] |
| COc1ccc(N2CSC3=C(C#N)C(c4cc(OC)c(OC)cc4OC)CC(=O)N3C2)c(OC)c1 (configuration not stated) | – | active: 44.7 µM |
| COc1cccc(/C(O)=C2/C(=O)C(=O)N(Cc3cccnc3)C2c2ccco2)c1 (configuration not stated) | inactive: -33.9% | – |
| CN(C)CCCN(C(=O)c1cc2cc([N+](=O)[O-])ccc2s1)c1nc2cc3c(cc2s1)OCCO3 | – | inconclusive: 44.7 µM [inhibitor, partial curve] |
| O=C(Cc1ccccc1)c1c[nH]c(C(=O)NC2CCCC2)c1 | inactive: -30.5% | – |
| CCCN1CCC(=O)N([C@H](COc2ccccc2)c2ccccc2)CC1 | – | inconclusive: 50.1 µM [inhibitor, partial curve] |
| Cc1ccc(-c2nc(N=Nc3ccc(O)cc3)n[nH]2)cc1 | – | inconclusive: 28.2 µM [inhibitor, full curve, poor fit] |
| COC(=O)C1=C(C)Nc2ncnn2C1c1cccnc1 (configuration not stated) | – | inconclusive: 100 µM [inhibitor, single point] |
| COc1ccccc1/C=C/C(=C1/C(=O)N(c2ccccc2)N=C1C)c1ccc(C)cc1 | – | active: 2.82 µM |
| CCNc1nc(NCC)n2c(SCC(=O)Nc3ccc(Br)cc3F)nnc2n1 | – | inconclusive: 100 µM [inhibitor, single point] |
| COc1ccc(C2CC(c3cccs3)=NN2C(=O)c2ccco2)cc1OC (configuration not stated) | – | inconclusive: 89.1 µM [inhibitor, single point] |
| COCCNC(C(=O)Nc1ccc([N+](=O)[O-])cc1Br)c1ccccc1 (configuration not stated) | – | inconclusive: 79.4 µM [inhibitor, single point] |
| Nc1ccc2c(c1)COc1ccccc1O2 | – | inconclusive: 50.1 µM [inhibitor, partial curve] |
| S=C(NCc1ccc2c(c1)OCO2)NCc1ccco1 | – | inconclusive: 79.4 µM [inhibitor, single point] |
| CCOc1cc(/C=N/NC(=O)COc2ccc(Cl)cc2)ccc1OS(=O)(=O)c1ccccc1 | – | inconclusive: 79.4 µM [inhibitor, single point] |
| CCc1ccc(NC(=O)CC2C(=O)N(c3cccc(OC)c3)C(=O)N2C2CCCC2)cc1 (configuration not stated) | – | inconclusive: 89.1 µM [inhibitor, single point] |
| O=C(O)CCC(=O)N(Cc1cccs1)Cc1cccs1 | – | active: 56.2 µM |
| CC(C)(C)c1ccc(S(=O)(=O)N2CCN(Cc3cc4c(cc3O)OCO4)CC2)cc1 | – | inconclusive: 39.8 µM [inhibitor, partial curve] |
| O=C(O)c1ccc(S(=O)(=O)c2ccc(Sc3ccc(C(=O)O)c(C(=O)O)c3)cc2)cc1 | – | active: 50.1 µM |
| Cc1ccc2c(c1)-c1ncc(C(=O)c3ccccc3O)cc1CO2 | – | inconclusive: 10 µM [inhibitor, full curve] |
| O=C(C[n+]1cc(Br)cc2ccccc21)c1ccc(Br)cc1 | inactive: -34.1% | – |
| O=C(O)c1ccccc1-c1ccccc1C(=O)NCc1ccco1 | inactive: 9.25% | – |
| C=CCn1c(COc2ccccc2)nnc1SCC(=O)N/N=C/c1ccc(C)cc1 | – | inconclusive: 89.1 µM [inhibitor, single point] |

| Compound | activity change, negative = inhibition | Potency |
| --- | --- | --- |
| CN(C)c1ccc(/C=N/NC(=O)Cn2nnc3ccccc32)cc1 | inactive: -26.6% | – |
| NC(=O)CSc1nnc(Cn2c(=O)sc3ccccc32)n1-c1ccccc1 | inactive: -0.411% | – |
| C(=N\Nc1ccc2nncn2n1)/c1ccco1 | inactive: -25.1% | – |
| Cc1ccc(F)c(NC(=O)/C(C#N)=C(\O)c2ccc(C(C)(C)C)cc2)c1 | – | inconclusive: 89.1 µM [inhibitor, single point] |
| Cc1ccccc1Nc1c(-c2ccc(N3CCOCC3)cc2)nc2ccccn12 | – | active: 17.8 µM |
| COC(=O)C1=C(C)NC(=O)/C1=C\c1cc(C)n(-c2cc(C)cc(C)c2)c1C | – | active: 44.7 µM |
| CCc1ccccc1Nc1nc(N)nc(CSc2nnnn2C)n1 | – | inconclusive: 89.1 µM [inhibitor, single point] |
| CC1CCCCC1N1CCN(C(=O)c2cccc(F)c2)CC1 (configuration not stated) | – | inconclusive: 79.4 µM [inhibitor, single point] |
| Fc1cccc(-n2ncc3c2ncn2nc(Cc4ccccc4)nc32)c1 | inactive: -3.74% | – |
| CC(C)(C)C1CCc2nc(NC(=O)Cc3cn4ccsc4n3)sc2C1 (configuration not stated) | – | inconclusive: 31.6 µM [inhibitor, partial curve] |
| CCOC(=O)c1ccc(N=Nc2c(C)c(C#N)c(O)[nH]c2=O)cc1 | – | inconclusive: 44.7 µM [inhibitor, partial curve, poor fit] |
| CC1=[N+]([O-])C(C)(C)C(C)N(O)C1=O (configuration not stated) | – | inconclusive: 89.1 µM [inhibitor, single point] |
| Cc1ccc2nc3sc(C(=O)NCCCN(C)c4ccccc4)cc3cc2c1 | – | inconclusive: 20 µM [inhibitor, full curve] |
| CC(C)c1ccc(-c2nc(C(N)=O)c3c(n2)n(-c2ccc4c(c2)OCO4)c(=O)n3C)cc1 | – | inconclusive: 89.1 µM [inhibitor, single point] |
| O=C(NO)c1ccccc1O | – | inconclusive: 89.1 µM [inhibitor, single point] |
| Cc1cc(Br)ccc1OCCCCNCCO | – | inconclusive: 89.1 µM [inhibitor, single point] |
| COc1cccc(-n2c(Cc3cc(=O)[nH]c(=O)[nH]3)nnc2SCC(=O)NC2CCCCC2)c1 | inactive: 5.26% | – |
| COC(=O)c1cc(NS(=O)(=O)c2ccc(N3CCCCC3)c([N+](=O)[O-])c2)cc(C(=O)OC)c1 | – | inconclusive: 39.8 µM [inhibitor, partial curve] |
| CC(=O)NC(Cc1cccc(F)c1)C(=O)NC1CCN(C(=O)c2ccc(C)cc2)CC1 (configuration not stated) | inactive: 5.8% | – |
| Cc1ccc(/C=C2\CCCC3=C2NC(=S)NC3c2ccc(C)cc2)cc1 (configuration not stated) | – | inconclusive: 89.1 µM [inhibitor, single point] |
| CCN1C(=O)/C(=C\c2ccncc2)SC1=S | – | inconclusive: 44.7 µM [inhibitor, partial curve] |
| COc1cc(-c2nnc(-c3cc(OC)c(OC)c(OC)c3)o2)cc(OC)c1OC | inactive: -3.51% | – |
| Cn1c(=NC(=O)COc2ccccc2)sc2ccccc21 | inactive: -31% | – |
| CCOc1cc(-c2nnc(SCC(=O)NC3CCCC3)nc2-c2ccc(OC)c(OCC)c2)ccc1OC | – | inconclusive: 89.1 µM [inhibitor, single point] |
